Read counts are not given, so values of variants with three or more changes are uncertain.
B1: OR4K15 (parent)
chain: GUUAACGGUCAUAGGCCAUGGAAACUAGGAGCACCAUUUCGCUGCCAGUGAAGAAAUGAACAAAGAAAAUCUGGGCCAGGCAGGCAUCAAAAGAAAUAGUCUUGCGCUCAACCAGAAAGUCUGUAAUCAUUUUAAGGGUA

Variants of: B1
Assay: self-cleavage, relative activity (ratio to wild type); higher = more cleavage; in vitro, sequencing; the parent is a self-cleaving ribozyme
For GUUAACGGUCAUAGGCCAUGGAGGUUAGGAGCGCCAUUUCGCUGCCAGUGAAGAAAUGAACAAAGAAAAUCUGGGCCAGGCAGGCAUCAAAAGAAAUAGUCUUGCGCUCAACCAGAAAGUCUGUAAUCAUUUUAAGGGUA [A23G A24G C25U A33G], the self-cleavage was 1.17.
GUUAGCGGUCAUAGGCCAUGGAAACUAGGAGCACCAUUUCGCUGCCAGUGGAGAAGUGAACAAAGAAAAUCUGGGCCAGUCAGGCAUCAAAAGAAAUAGUCUUGCGCUCAACCAGAAAGUCUGUAAUCUUUUUAAGGGUA [A5G A51G A56G G80U A129U] showed a self-cleavage of 0.12.
GUUAACGGUCAUAGGCCAUGGAAACUAGGAGUACCAUUUCGCUGCCAGUGAAGAAAUGAACAAAGAAAAUCUGGGCCAGGCAGGCAUCGAAAGAAAUAGUCUUGCGCUCAACCAGAGAGUCUGUAAUCAUUUUAAGGGUA [C32U A89G A117G] gave a self-cleavage of 1.97.
GUUAACGGUCAUAGGCCAUGGUAACUAGGAGCGCCAUUUCGCUGCCAGUGAGGAAAUGAACAAAGAAAAUCUGGGCCAGGCAGGCAUCAAGAGAAGUAGUCUUGCGCCCAACCAGAAAGUCUGUAAUCAUUUUAAGGGUA [A22U A33G A52G A91G A96G U108C] showed a self-cleavage of 0.02.
In the case of GUUAACGGUCAUAGGCCAUGGAAACUAGGAGCACCAUUUCGCUGCCAGUGAUGAAAUGAACGAAGAAAAUCUGGGCCAGGCAGGCAUCAAAAGAAAUAGUCUCGCGCUCAACCAGAAAGUCUGUAAUCAUUAUAAGGGUA [A52U A62G U103C U132A], the self-cleavage is reported as 0.31.
GCUAACGGUCAUGGGCCAUGGAAACUAGGAGCACCGUUUCGCUGCCAGUGAAGAAAUGAACAGAGAAAAUCUGGGCCAGGCAGGCAUCAAAAGAAAUAGUCUUGCGCUCAACCAGAAAGUCUGUAAUCAUUUUAAGGGUA [U2C A13G A36G A63G] showed a self-cleavage of 0.61.
With GUUAACGGUCAUAGGCCAUGGAACCUAGGAGCACCAUUUCGCUGCCAGUGAAGAAAAGAACAAAGAAAGUCUGGGCCAGGCAGGCAUCAAAAGAAUUAGUCUUGCGCCCAACCAGAAAGUCUGUAAUCAUUUUAAGGGUA [A24C U57A A69G A96U U108C] the self-cleavage was 0.04.
With GUUAACGGUCAUAGGCCAUGGAAACUAGGAGCACCAUCUCACUGCCAGUGAAGAAAUGAACAAAGAAAAUCUGGGCCGGGCAGGCAUCAAAAGAAAUAGUCUUGCGCUCAACCAGAAAGUCUGUAAUCAUUUUAAGGGUA [U38C G41A A78G] the self-cleavage was 0.4.
Variant GUUAUCGGUCAUUGGCCAUGGAAACUCGGAGCACCAUUUCGCCGCCAGUGAAGAAAUGGACAAAGAAAAUCUGGGCCAGGCAGGCAUCAAAAGAAAUAGUCUUGCGCUCAACCAGAAAGUCUGUAAUCAUUUUAAGGGUA [A5U A13U A27C U43C A59G] has a self-cleavage of 1.06.
For GUUAACGGUCAUAGGCCACGGAAACUAGGAGCACCAUUUCGCUGCCAGUGAAGAAAUGAACAAAGAAAAUCUGGGCCAGGCAGGCAUCAAAAGAAAUAGUCUUGCGCUCAACCAGAAAGUCCGUAAUCAUUUUAAGGGUU [U19C U122C A140U], the self-cleavage was 1.24.
GUUAACGGUCAUAGGCCAUGGAAACUAGGGGCACCAUUUCGCUGCCAGUGAAGAAAUGAACAAAGAAAGUCUGGGCCAGGCAGGCAUCAAAGGAAAUAGCCUUGCGCUCAACCAGAAAGUCUGUAAUCAUUUUAAGGGUA [A30G A69G A92G U100C] showed a self-cleavage of 2.04.
Work on GUUAACGGUCAUAGGCCAUGGAAACUAGGAGCACCAUUUCGCUGCCAGUGAAGAAAUGAACAAGGAAAAUCUGGGCCAGGCAGGCAUCAAAAGAAAUAGUCUUGCGCUCAACCUGAAAGUCAGUAAUCAUUUUAAGGUUA [A64G A114U U122A G138U] yielded a self-cleavage of 0.01.
For GUUAACGGUCAUAGGCCAUGGAAACUAGGAGCACCAUUUCGCUGCCAGUGAAGAAGUGAGCAAAGAAAAUCUGGGCCAGGCAGGCAUCGAAAGAAAUAGUCUUGCGCUCAACCAGAAAGUCUGUAAUCAUUUUAAGGGUA [A56G A60G A89G], the self-cleavage was 1.61.
Variant GUUAACGGUCAUAGGCCAUGGAAACUAGGCGCACCAUUUCGCUGCCAGUGAAGGAACGAACAAAGAAAAUCUGGGCCAGGCAGGCAUCAAAAGAAAUAGUCUUGCGCUCAACCAGAAAGUCUGUAAUCAUUUUAAGGGUA [A30C A54G U57C] has a self-cleavage of 0.76.
Variant GUUAACGGUCAUAGGCCAUGGGAACUAGGAGCACCAUUUCGCUGCCAGUGAAGAAAUGAACAAAGAAAAUCUGGGCCAGGCGGGCAUCAAAAGAAAUAGUCUUGCGCUCAACCAGAAAGUCUGCGAUCAUUUUAAGGGUA [A22G A82G U124C A125G] has a self-cleavage of 0.59.
GUUAACGGUCAUAGGCCAUGGAAACUAGGAGCACCAUUUCGCUGCCAGUGAAGAAAUGAACAAGGAAAAUCCGGGCCAGGCAGGCAUCAAAAGAAAUAGUCUUGCGCUCAACCAGAAAGUCUGUAACCAUUUUAAGGGUA [A64G U72C U127C] gave a self-cleavage of 0.14.
For GUUAACGGUUAUAGGCCAUGGAAACUAGGAGCACCACUUCGCUGCCAGUGAAGAAAUGAACAGAGGAAAUCUGGGCCAGGCAGGCAUCAAAAGAAAUAGUCUUGCGCUCAACCAGAAAGUCCGUAAUCAUUUUAAGGGUA [C10U U37C A63G A66G U122C], the self-cleavage was 0.46.
Work on GUUAACGGUCAUAGGCCAUGGAAACUAGGAGCACCAUUUCGCUGCCAGUGAAGAAAUGAGCAAAGAAAAUCCGGGCCAGGCAGGCAUCAAAAGAGAUCGUCUUGCGCUCAACCAGAAAGUCUGUAAUCAUUUUAAGGGUA [A60G U72C A95G A98C] yielded a self-cleavage of 0.17.
Work on GUUAACGGUCAUAGGCCAUGGAGACUAGGAGCACCAUUUCGCUGCCAGUGAAGAAAUGAACAAAGGAAAUCUGGGCCAGGCAGGCAUCAAAAGAAAUAGUCUUGCGCUCAACCAGAAAGUCUGUAAUCGUUAUAAGGGUA [A23G A66G A129G U132A] yielded a self-cleavage of 1.26.
GAUAACGGUCAUAGGCCAUGGAAACUAGGAGCACCAUUUCGCUGCCAGUGGAGAAAUGAACAAAGAAAAUCAGGGCCAGGCAGGCAUCAAAAGAAAUAGUCUUGCGCUCAACCAGAAAGUCUGUAAUCAUCUUAAGGGUU [U2A A51G U72A U131C A140U] showed a self-cleavage of 0.24.
For GUUAACGGUCAUAGGCCAUAGAAACUAGGAGCACCAUUUCGCUGCCGGUGAGGAAAUGAACAAAGAAAAUCUGGGCCAGGCAGGCAUCAAAAGAAAUAGUCUUGCGCUCAACCAGAAAGUCUGUAAUCAUUUUAAGGGUA [G20A A47G A52G], the self-cleavage was 1.1.

— the RNAGym collection of RNA variant scans (doi:10.7554/elife.90254)
